Experimental findings from PubChem BioAssay AID360 (National Center for Advancing Translational Sciences (NCATS), 2006) are described below.

The structures appear in SMILES notation. Out of some 48,000 compounds screened, about 550 (1.1%) were called active. Inconclusive results (about 4%) are left out. Cut-off read from the data, not from the text of the source: active = potency below about 15 µM; inconclusive = mostly about 16 µM to 33 µM; inactive = weaker than that. The list shows a part of the results.
Potency is the fitted concentration of half-maximal effect.

UniProt P04062, sequence (P04062 whole entry, looked up): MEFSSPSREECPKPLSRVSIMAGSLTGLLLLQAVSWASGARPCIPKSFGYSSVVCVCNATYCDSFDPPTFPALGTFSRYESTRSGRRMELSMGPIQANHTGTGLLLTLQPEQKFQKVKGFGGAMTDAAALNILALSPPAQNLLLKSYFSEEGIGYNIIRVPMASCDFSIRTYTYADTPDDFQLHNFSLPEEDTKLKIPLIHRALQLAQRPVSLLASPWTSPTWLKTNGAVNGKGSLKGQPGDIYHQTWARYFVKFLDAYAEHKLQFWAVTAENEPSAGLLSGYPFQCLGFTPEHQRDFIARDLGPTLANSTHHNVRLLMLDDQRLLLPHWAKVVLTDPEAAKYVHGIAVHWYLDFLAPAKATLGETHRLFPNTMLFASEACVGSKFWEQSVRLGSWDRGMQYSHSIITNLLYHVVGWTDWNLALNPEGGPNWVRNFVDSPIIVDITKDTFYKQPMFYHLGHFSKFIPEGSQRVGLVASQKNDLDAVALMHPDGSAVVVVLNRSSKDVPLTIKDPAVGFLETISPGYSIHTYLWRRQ

In this assay the target is Lysosomal acid glucosylceramidase (Homo sapiens) (UniProt P04062). Description: Glucocerebrosidase.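 Note: the screen sought inhibitors.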 The conditions noted are these: purified enzyme, resorufin glucoside fluorescence (screen aimed at inhibitors), 20 min; series mostly up to 77 µM. The gist of the method:
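Compounds titrated against 0.2 nM normal enzyme, 30 uM resorufin beta-D-glucopyranoside substrate, citrate/phosphate buffer with taurocholate and tween-20, pH 5.9. Reaction ran 20 min at room temperature; fluorescence (Ex 548/Em 600) gave AC50.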
On to `CCOC(=O)N1CCN(c2nc(-c3ccc(F)cc3)cs2)CC1`, for which the Potency is inactive: > 76.9 µM.
Turning to `CCOC(=O)CSc1nnc(N)s1`, the Potency was inactive: > 76.9 µM.
On to `Oc1ccc(CNc2ccccc2)c2cccnc12`, for which the Potency is inactive: > 76.9 µM.
For the molecule `COc1cc(C(=O)OCC(=O)NCc2ccco2)cc(OC)c1OC`, the Potency was inactive: > 76.9 µM.
Under `CCCNC(=O)C1CCN(c2nc(C)cc(C)n2)CC1` stands inactive: > 76.9 µM.
Under `COc1ccc(C(=O)n2nnc3ccccc32)cc1Br` stands inactive: > 76.9 µM; under `Cc1cc2ncn(/N=C/c3cccnc3)c2cc1C`, inactive: > 76.9 µM.
On to `Cc1c(NC(=O)C23CC4CC(CC(C)(C4)C2)C3)c(=O)n(-c2ccccc2)n1C`, for which the Potency was inactive: > 76.9 µM.
Turning to `Cc1ccc(C(c2nnnn2CC2CCCO2)N2CCN(C(=O)c3ccco3)CC2)cc1` (stereo not given), the Potency is inactive: > 76.9 µM.
Under `COc1cccc(Oc2cn[nH]c2-c2ccc(OC)cc2O)c1` stands inactive: > 76.9 µM; under `COCc1cc(=O)[nH]c(/N=C(\N)Nc2ccc(C)cc2)n1`, inactive: > 76.9 µM.
Take `COc1ccc(CNc2nc3c(c(C(F)(F)F)n2)CCCCC3)cc1`: the Potency was inactive: > 76.9 µM.
Then `O=C(O)C1C(c2ccccc2)C(C(=O)Oc2ccc(O)cc2)C1c1ccccc1` (stereo not given), with inactive: > 76.9 µM; and `c1ccc(N2CCN(c3nc4cc5c(cc4s3)OCCO5)CC2)cc1`, with inactive: > 76.9 µM.
Regarding `CC1CN(c2oc(-c3ccco3)nc2S(=O)(=O)c2ccccc2)CC(C)O1` (stereo not given), the Potency was inactive: > 76.9 µM.
Regarding `Cc1ccc(-n2nc(C)c3c(-c4cccs4)c(C#N)c(N)nc32)cc1`, the Potency is inactive: > 76.9 µM.
In the case of `COc1ccc(NC(=O)CN(C)S(=O)(=O)c2ccccc2)cc1OC`, the Potency is inactive: > 76.9 µM.
For the molecule `CCOc1ccc(NC(=O)C2CC(=O)N(c3cc(C)cc(C)c3)C2)cc1` (stereo not given), the Potency was inactive: > 76.9 µM.
Regarding `CCn1c(SCC(=O)Nc2cc(C)on2)nc2sc(C)c(C)c2c1=O`, the Potency is inactive: > 76.9 µM.
`Cc1ccc(S(=O)(=O)c2c(N)n(CC3CCOC3)c3nc4ccccc4nc23)cc1` (stereo not given): the Potency was inactive: > 76.9 µM.
For the molecule `O=C(O)CSC(NC(=O)c1cccnc1)(C(F)(F)F)C(F)(F)F`, the Potency was inactive: > 76.9 µM.
Then `O=C(OCc1nnc(-c2ccc(Cl)cc2)o1)c1ccc(=O)n(Cc2ccccc2)n1`, with inactive: > 76.9 µM; and `CC1CCCC(C)N1Cc1cn2ccccc2n1` (stereo not given), with inactive: > 76.9 µM.
Then `COc1ccc(S(=O)(=O)N2CCCC(C(=O)Nc3cccc(C(C)=O)c3)C2)cc1` (stereo not given), with inactive: > 76.9 µM; and `Cc1ccc(-n2nc(-c3ccco3)cc2C(=O)NCc2cccnc2)cc1`, with inactive: > 76.9 µM; and `CC(C)(C)OC(=O)N1CCC[C@H]1c1nnc(SCc2ccccc2F)o1`, with inactive: > 76.9 µM.
Under `COCC(=O)Nc1nc2ccc(S(C)(=O)=O)cc2s1` stands inactive: > 76.9 µM.
`CSc1ccc(-c2c(C#N)c(N)nc3c2c(C)nn3-c2ccccc2)cc1`: the Potency is inactive: > 76.9 µM.
Under `Cc1nn(-c2cc(C)c3ccccc3n2)c2c1CCC2` stands inactive: > 76.9 µM.
Under `CCC(=O)c1ccc(OCCN2CCOCC2)cc1` stands inactive: > 76.9 µM.
Then `CCOc1nc(OCC)nc(N2CCC(C)CC2)n1`, with inactive: > 76.9 µM; and `Cc1[nH]c2ccc(-c3nnc(SCC(=O)N4CCCc5ccccc54)o3)cc2c1C`, with inactive: > 76.9 µM; and `O=C(OCCNc1ncc(C(F)(F)F)cc1Cl)c1ccc(S(=O)(=O)N2CCOCC2)cc1`, with inactive: > 76.9 µM.
Take `N#CCCN1CCN(C(=S)c2ccc(-c3ccc(Cl)cc3)o2)CC1`: the Potency is inactive: > 76.9 µM.
Then `C=C(C)COc1ccc(-c2n[nH]c(C)c2-c2ccccc2)c(O)c1`, with inactive: > 76.9 µM; and `N#CCCN(C(=O)CN1C(=O)NC2(CCCC2)C1=O)c1ccccc1F`, with inactive: > 76.9 µM; and `O=C1CCC(=O)c2oc3ccccc3c2N1`, with inactive: > 15.4 µM.
Consider `O=C(Nc1cnn(Cc2ccc(F)cc2)c1)c1cnccn1`, for which the Potency was inactive: > 76.9 µM.
Under `Cc1cc(Cl)c(S(N)(=O)=O)cc1OCC(N)=O` stands inactive: > 76.9 µM.
Then `CCc1ccc(-c2nnn(CCC(=O)OC)n2)cc1`, with inactive: > 76.9 µM; and `CCSc1cc(C2C(C(=O)OC)=C(C)NC3=C2C(=O)CCC3)c(C)o1` (stereo not given), with inactive: > 76.9 µM; and `N#Cc1nc(-c2ccccc2F)oc1NCCc1ccccn1`, with inactive: > 76.9 µM.
Turning to `COc1ccccc1N1CCN(C(=O)CCNS(=O)(=O)c2ccc(Br)s2)CC1`, the Potency was inactive: > 76.9 µM.
Then `COc1ccccc1NC(=O)c1cc2n(n1)C(C(F)(F)F)CC(c1ccc3c(c1)OCO3)N2` (stereo not given), with inactive: > 76.9 µM; and `CCC1(CC)C(=O)NC(=O)NC1=NCCc1c[nH]c2ccccc12`, with inactive: > 76.9 µM; and `O=C(c1ccco1)N1CCN(C(c2cccs2)c2nnnn2C2CCCCC2)CC1` (stereo not given), with inactive: > 76.9 µM.
Regarding `CCOc1ccccc1N1CCN(S(=O)(=O)c2ccc(Cl)s2)CC1`, the Potency was inactive: > 76.9 µM.
Then `CCOc1ccc2nc(SCC(=O)N3CCCCCC3)c(C#N)cc2c1`, with inactive: > 76.9 µM.
For `COc1ccc(N2CCN(c3ncnc4c3cnn4-c3ccc(C)cc3C)CC2)cc1`, the Potency is inactive: > 76.9 µM.
Under `Cc1cccc(C(=O)NC2CC3CCCC(C2)N3C(=O)NC2CCCCC2)c1` (stereo not given) stands inactive: > 76.9 µM; under `COc1cccc(CNS(=O)(=O)c2cn(C)cn2)c1`, inactive: > 76.9 µM.
`CC(=NCc1ccc2c(c1)OCO2)C1=C(O)c2ccccc2C1=O`: the Potency is inactive: > 76.9 µM.
Under `CCn1c(CNC(=O)c2ccc3c(c2)OCO3)nnc1SCC(=O)Nc1cc(C)ccc1OC` stands inactive: > 76.9 µM; under `NC(=O)C1CCN(CC(=O)Nc2ccccn2)CC1`, inactive: > 76.9 µM.
Under `CCOc1ccc(CCNC(=O)C2CCN(c3nn4c(=O)cc(C)nc4s3)CC2)cc1` stands inactive: > 76.9 µM.
Under `O=C(NCc1n[nH]c(=S)n1-c1ccccc1)c1ccco1` stands inactive: > 76.9 µM.
As to `CN(CCc1ccccn1)c1ncnc2[nH]ncc12`, the Potency was inactive: > 76.9 µM.
On to `CCN(CC)C(=O)CSc1nnc(-c2cccs2)n1Cc1ccco1`, for which the Potency was inactive: > 76.9 µM.
Under `O=C(COc1ccc(Cl)cc1)OCC(=O)N1CCCCCC1` stands inactive: > 76.9 µM; under `O=C1Nc2ccccc2C12OCCCO2`, inactive: > 76.9 µM.
Then `Cc1ccc(S(=O)(=O)NC2=NCCC2)cc1`, with inactive: > 76.9 µM.
Then `CCOC(=O)CNC(=O)c1nn(-c2ccc(OCC)cc2)c(=O)c2ccccc12`, with inactive: > 76.9 µM.
On to `O=C(NC1(C(F)(F)F)NC(=O)N(CC2CCCCC2)C1=O)c1ccco1` (stereo not given), for which the Potency was inactive: > 76.9 µM.
Then `CCn1c(SCC(=O)O)nnc1-c1cc2c(C)nn(-c3ccccc3)c2s1`, with inactive: > 76.9 µM; and `Cc1cc(SCC(N)=O)nc(SCC(=O)c2ccccc2)n1`, with inactive: > 76.9 µM; and `O=C(Nc1ccccc1N1CCN(c2ccccc2)CC1)c1cccc(F)c1`, with inactive: > 76.9 µM.
Then `CCOC(=O)CN1C(=O)C(O)=C(C(C)=O)C1c1ccc(F)cc1` (stereo not given), with inactive: > 76.9 µM; and `Oc1c(C(c2ccccn2)N2CCOCC2)ccc2cccnc12` (stereo not given), with inactive: > 76.9 µM; and `Cc1[nH]c(=O)[nH]c(=O)c1S(=O)(=O)N1CCCC(C(=O)NCCc2ccccc2)C1` (stereo not given), with inactive: > 76.9 µM.
On to `CC(c1nnc(SCC(=O)c2c(N)n(C)c(=O)n(C)c2=O)n1-c1ccc(Cl)cc1)N(C)C` (stereo not given), for which the Potency was inactive: > 76.9 µM.
Under `CC(C)OCCCn1c(=NC(=O)c2ccncc2)c(C#N)cc2c(=O)n3ccccc3nc21` stands inactive: > 76.9 µM; under `N#Cc1cccc(C(c2nnnn2Cc2ccccc2)N2CCCC2)c1` (stereo not given), inactive: > 76.9 µM; under `Cc1ccc(C)c(C(=O)n2cnnc2N)c1`, inactive: > 76.9 µM.
With `O=C(C1=C(O)C(=O)N(CCN2CCOCC2)C1c1ccccc1)c1cccs1` (stereo not given), the Potency is inactive: > 76.9 µM.
Consider `O=C(C1CCCN(S(=O)(=O)c2cccc3nonc23)C1)N1CCC(Cc2ccccc2)CC1` (stereo not given), for which the Potency was inactive: > 76.9 µM.
Then `CC(=O)N(Cc1ccco1)C1(C(=O)NC2CCCCC2)CCCCC1`, with inactive: > 76.9 µM; and `CCC(=O)N1C(=O)CCN(C(C)=O)c2ccccc21`, with inactive: > 76.9 µM; and `COc1ccc(C(=O)N2CCN(S(=O)(=O)N3CCOCC3)CC2)cc1OC`, with inactive: > 76.9 µM.
As for `Cc1ccc(-n2nnc3c(=O)n(Cc4cc(C)ccc4C)cnc32)cc1`, the Potency was inactive: > 76.9 µM.
Under `Cn1c(SCC(=O)Nc2cccc(F)c2)nnc1-c1cc2ccccc2o1` stands inactive: > 76.9 µM; under `COc1ccc(/C=N\n2nnc3ccccc32)cc1`, inactive: > 76.9 µM.
Consider `COc1ccccc1NC(=O)CSc1nc(O)cc(=O)n1C`, for which the Potency is inactive: > 76.9 µM.
Then `COC(=O)c1cccc(C(=O)Nc2ccc(C)cc2)n1`, with inactive: > 76.9 µM.
Regarding `Cc1noc(C)c1COC(=O)CCCc1nc2ccccc2s1`, the Potency was inactive: > 76.9 µM.
Then `CCOC(=O)c1cc2c(ccn2C)n1CC(=O)N1CCN(c2ccccc2OC)CC1`, with inactive: > 76.9 µM.
Then `CCc1cc2ccc(C)cc2nc1SCC(=O)N1CCN(C(=O)c2ccco2)CC1`, with inactive: > 76.9 µM; and `O=C(Nc1cccc(NC(=O)C2CC3CCCC(C2)C3=O)n1)C1CC2CCCC(C1)C2=O` (stereo not given), with inactive: > 76.9 µM; and `CCN(CC)S(=O)(=O)c1ccc(-c2nnc(SCc3nnc(-c4ccccc4)o3)o2)cc1`, with inactive: > 76.9 µM.
For the molecule `COc1ccc(C2(C(=O)O)CCCC2)cc1`, the Potency was inactive: > 76.9 µM.
Consider `CC(C)c1ccc(NC(=O)C2CCN(S(C)(=O)=O)CC2)cc1`, for which the Potency was active: 12.4 µM.
